In PMC4336329 (PLoS ONE, 2015):
The whole screen tested about 310,000 compounds, of which about 2,200 (0.71%) showed an effect of 50% or more. Effects have a minus sign here. Some of the results follow.

target: human ether-à-go-go-related gene (hERG) potassium channel (human, UniProt Q12809); test: primary screen, population patch clamp on CHO cells stably expressing hERG
Sequence (Q12809 whole entry, looked up): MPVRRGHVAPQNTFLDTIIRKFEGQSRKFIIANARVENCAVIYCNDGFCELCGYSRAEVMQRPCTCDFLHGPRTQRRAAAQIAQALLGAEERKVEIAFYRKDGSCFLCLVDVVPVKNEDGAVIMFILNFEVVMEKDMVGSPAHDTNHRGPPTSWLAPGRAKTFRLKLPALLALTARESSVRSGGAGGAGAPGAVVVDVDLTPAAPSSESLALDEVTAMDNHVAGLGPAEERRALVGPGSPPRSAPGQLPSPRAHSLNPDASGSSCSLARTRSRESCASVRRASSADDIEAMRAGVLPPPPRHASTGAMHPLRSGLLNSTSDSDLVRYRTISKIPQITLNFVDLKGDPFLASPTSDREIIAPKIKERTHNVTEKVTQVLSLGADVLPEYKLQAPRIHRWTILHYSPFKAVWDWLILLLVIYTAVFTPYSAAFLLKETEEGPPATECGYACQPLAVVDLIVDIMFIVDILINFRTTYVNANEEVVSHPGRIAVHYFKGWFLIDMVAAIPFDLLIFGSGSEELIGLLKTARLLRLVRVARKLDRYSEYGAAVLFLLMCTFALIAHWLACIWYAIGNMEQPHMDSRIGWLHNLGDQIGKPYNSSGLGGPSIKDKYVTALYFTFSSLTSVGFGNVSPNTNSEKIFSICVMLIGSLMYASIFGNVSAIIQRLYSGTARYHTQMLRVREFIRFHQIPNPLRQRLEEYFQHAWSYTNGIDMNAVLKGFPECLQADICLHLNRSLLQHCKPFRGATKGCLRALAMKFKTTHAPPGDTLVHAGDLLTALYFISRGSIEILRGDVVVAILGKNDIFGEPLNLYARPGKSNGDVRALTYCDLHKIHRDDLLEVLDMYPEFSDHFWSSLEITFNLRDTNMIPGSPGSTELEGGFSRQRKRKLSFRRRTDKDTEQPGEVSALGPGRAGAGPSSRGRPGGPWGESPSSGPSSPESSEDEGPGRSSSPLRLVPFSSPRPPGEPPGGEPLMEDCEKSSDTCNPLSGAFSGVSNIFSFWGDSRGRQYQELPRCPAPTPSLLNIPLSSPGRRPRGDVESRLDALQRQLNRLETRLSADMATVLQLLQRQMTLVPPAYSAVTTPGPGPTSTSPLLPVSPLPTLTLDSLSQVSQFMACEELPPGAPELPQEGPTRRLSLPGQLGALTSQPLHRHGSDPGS

Row | SMILES | hERG current change (%, negative = inhibition) at 1uM
1 | CCOC(=O)Cn1c(=N)n(CCOc2ccc(Br)cc2)c2ccccc21.Cl | -20.9%
2 | COc1cc(C(=O)Nc2ncccc2C)ccc1OCC(=O)N1CCOCC1 | 12.8%
3 | Cc1ccc(S(=O)(=O)NCC(=O)NCC2COc3ccccc3O2)cc1C (centres unmarked) | 6.57%
4 | Cc1ccc(-c2nc(CS(=O)(=O)CC(=O)N3CCc4ccccc4C3)c(C)o2)cc1 | 1.96%
5 | O=C1OC(c2ccc(F)cc2)=N/C1=C\C=C/c1ccccc1 | 12.2%
6 | C/C(=N\NC(=S)Nc1cc(S(=O)(=O)N2CCOCC2)ccc1Cl)c1ccccc1F | 4.64%
7 | CCCCn1c(N)c(N(Cc2ccccc2OC)C(=O)C(C)Oc2ccc(Cl)cc2)c(=O)[nH]c1=O (centres unmarked) | 19.3%
8 | Br.CC(C)(C)c1ccc(C2=CSC3=NCCN23)cc1 | -22.4%
9 | CC(=O)c1c(C)[nH]c(C(=O)OCC(=O)c2c[nH]c3ccccc23)c1C | 11.4%
10 | COC(=O)c1cc2c(ccn2-c2ccc(F)cc2)n1CC(=O)OC(C)C | 15.7%
11 | O=c1c2c3c(sc2n(CCN2CCOCC2)c(=O)n1Cc1ccco1)CCCCC3 | -9.12%
12 | COc1ccc(Nc2nc(N)nc(COc3ccc(OC)cc3)n2)cc1 | 2.9%
13 | O=C(CCC(=O)OCC(=O)c1ccc(Br)cc1)Nc1cccc2cccnc12 | 2.44%
14 | O=C(NC1CCCCCC1)C1CCCN(S(=O)(=O)c2cccs2)C1 (centres unmarked) | 12.9%
15 | CN(C)C(=O)c1c([N+](=O)[O-])ncn1C | 11.4%
16 | COc1ccc(NC(=O)CSc2nccn2Cc2ccc(F)cc2)cc1 | -0.999%
17 | CCOC(=O)C(NC(=O)Nc1ccccc1)(OCC)C(F)(F)F (centres unmarked) | 7.34%
18 | O=C(COC(=O)c1ccc([N+](=O)[O-])s1)NCCc1ccccc1 | 4.95%
19 | COc1cccc(N2CCN(CC(=O)c3c[nH]c4ccc(OC)cc34)CC2C)c1 (centres unmarked) | 2.29%
20 | O=C(NC(=O)N1CCSCC1)c1c(Cl)cccc1Cl | 9.76%
21 | O=C(Nc1c2n(c(=S)n(-c3ccccc3)c1=O)CCCCC2)c1ccccc1 | 1.56%
22 | COc1ccc(S(=O)(=O)N(CC(=O)Nc2ccccc2C(=O)N2CCOCC2)c2ccc(F)cc2)cc1 | -11%

Row | SMILES | hERG current change (%, negative = inhibition) at 1uM
23 | CCn1c(SCC(=O)NC2CCCCC2)nnc1-c1ccco1 | 3.82%
24 | CCS(=O)(=O)c1cc([N+](=O)[O-])c(Sc2ccccc2NC(C)=O)s1 | 14.2%
25 | CC(=O)/C(C#N)=C1\NC(=O)C(Cc2ccccc2C)S1 (centres unmarked) | 11.2%
26 | CCCN1CNC(=S)N(CCc2ccccc2)C1 | 13.2%
27 | Cl.O=C(c1ccco1)N1CCN(C(c2ccccc2F)c2nnnn2CC2CCCO2)CC1 (centres unmarked) | -7.84%
28 | Cc1ccc(NC(=O)c2sccc2-n2cccc2)c(C)c1 | 11.6%
29 | Cc1ccc2sc(NC(=O)c3ccc(N4C(=O)CCC4=O)cc3)nc2c1C | 18.9%
30 | Cc1ccc(C(=O)N/N=C\c2ccc(-c3ccc([N+](=O)[O-])cc3)o2)cn1 | 12%
31 | Cc1cc(C)nc(NS(=O)(=O)c2ccc(NC(=O)C3CC(=O)N(c4ccccc4)C3)cc2)n1 (centres unmarked) | 9.9%
32 | O=S(=O)(c1ccccc1)c1nc(Nc2ccccc2N2CCOCC2)sc1Cl | 0.482%
33 | COc1ccc(C(C(=O)NCc2ccccc2)N(Cc2ccco2)C(=O)c2snc(C(N)=O)c2N)cc1OC (centres unmarked) | 16%
34 | CCCC(=O)Nc1nnc(SCC(=O)N2C(C)CCCC2C)s1 (centres unmarked) | -11.6%
35 | COc1ccccc1CNC(=O)CNC(=O)c1cn(-c2ccccc2OC)c(=O)c2ccccc12 | -4.01%
36 | Cc1ccc(S(=O)(=O)N2CCC3(CC2)CC(=O)c2ccccc2O3)cc1 | -4.84%
37 | COc1ccc(C/C(N)=N/OC(=O)CCc2ccccc2)cc1 | 15.2%
38 | CC(=O)c1cccc(N2C(=NC(=O)C3CCCCC3)SC3CS(=O)(=O)CC32)c1 (centres unmarked) | 13.1%
39 | CCOc1ccc2nc(NC(=O)c3cnc(C)cn3)sc2c1 | 1.69%
40 | Oc1ccc(/C=N/Nc2nc(N3CCCC3)nc(N3CCCC3)n2)cc1O | -0.682%
41 | CCCN1CCC(=O)N([C@H](CO)Cc2ccccc2)CC1 | 6.98%
42 | O=C(CNc1cccc(S(=O)(=O)N2CCCC2)c1)Nc1ccc(C(F)(F)F)cc1 | 12.3%
43 | Cc1nc(C)c(C(=O)O)c(-c2cccs2)c1C(=O)O | 1.37%
44 | O=C(COc1ccc([N+](=O)[O-])cc1)N(Cc1ccccc1)Cc1ccccc1 | 1.39%

Row | SMILES | hERG current change (%, negative = inhibition) at 1uM
45 | CC(C)(C)NS(=O)(=O)c1ccc(CCC(=O)NCc2ccco2)cc1 | 9.45%
46 | COc1cccc(CC(=O)Nc2nccs2)c1 | 7.99%
47 | CN1CCN2c3ncccc3Cc3ccccc3[C@@H]2C1 | 6.24%
48 | CC/C(=C\c1oc2cc3ccccc3cc2[n+]1CC)Nc1ccccc1.[I-] | -83.7%
49 | Cc1ccc(C)n1-c1ccc(C(=O)NCc2ccncc2)cc1 | -1.09%
50 | COc1ccc(C)cc1NC(=O)C1CCCN(S(=O)(=O)c2cccnc2)C1 (centres unmarked) | 7.33%
51 | CCOC(=O)Nc1nc(-c2ccc(F)cc2F)cs1 | 10.4%
52 | COc1ccc(CCN2CC(C(=O)NCCc3ccccn3)CCC2=O)cc1 (centres unmarked) | 2.83%
53 | Cc1occc1-c1nnc(SCC(=O)c2ccccc2)n1CC1CCCO1 (centres unmarked) | 3.67%
54 | CCOc1ccccc1NC(=O)CNC(=O)c1nn(-c2ccc(OC)c(OC)c2)c(=O)c2ccccc12 | 11.2%
55 | O=C(COC(=O)C1=COCCO1)NCCCc1ccccc1 | 7.13%
56 | O=C1CCCc2oc3c(c21)CCCC3 | -8.2%
57 | CCCN(CCC)S(=O)(=O)c1cc(Br)cc2c1N(C(=O)CC)CC2 | 10.6%
58 | Cc1ccc(C(C)C)cc1OCCn1cncn1 | 9.66%
59 | CCCNS(=O)(=O)c1ccc(OCC(=O)Nc2ccc3c(c2)OCCO3)c(C)c1 | 1.83%
60 | Cc1nonc1CN(C)C(=O)CC1C(=O)NCCN1Cc1ccccc1C(F)(F)F (centres unmarked) | 10.3%
61 | Cc1ccc(NC(=O)CCNC(=O)c2ccc(Br)cc2)cc1S(=O)(=O)N1CCCCCC1 | 4.59%
62 | Cc1ccc(-c2nc3ccccc3c(=O)n2-c2nccs2)cc1 | 2.71%
63 | Brc1ccc(-n2c(SCc3nc4ccccc4[nH]3)nnc2-c2ccncc2)cc1 | -5.72%
64 | COc1ccc(C(=O)N2CCOC2CNC(=O)C(=O)NCc2ccco2)cc1 (centres unmarked) | 6.42%
65 | CC(=O)c1cccc(NC(=O)CN(c2ccccc2)S(C)(=O)=O)c1 | 4.49%
66 | CCc1cccc(CC)c1NC(=O)COC(=O)c1ccc2c(c1)S(=O)(=O)c1ccccc1C2=O | 12.5%

Row | SMILES | hERG current change (%, negative = inhibition) at 1uM
67 | CCOC(=O)c1cnc2cc(-c3ccc(Cl)cc3)nn2c1N | 0.811%
68 | Cc1ccc(-c2cn3c(=O)cc(C)[nH]c3n2)cc1 | 11.9%
69 | COc1ccc(C(O)(C(C)C)C(CN2CCOCC2)c2ccc(Cl)cc2)cc1.Cl (centres unmarked) | 9.24%
70 | Cc1ccc(NC(=O)CN(C)c2ccc(S(=O)(=O)N3CCCC3)cn2)cc1 | 2.33%
71 | CC(=O)Nc1cccc(OCCCNC(=O)c2ccc(F)cc2)c1 | 8.14%
72 | Cc1ccc(-n2cnc3ncnc(-c4ccccc4)c32)cc1 | 4.68%
73 | COc1cc(/C=N/N(C)S(=O)(=O)c2ccc(C)cc2)cc([N+](=O)[O-])c1O | 7.51%
74 | O=C(NC1CC1)C1=C[C@H](c2coc3ccccc3c2=O)C[C@H](OCc2ccc(CO)cc2)O1 | 4.78%
75 | Cc1nc2ccc(-c3ccccc3)cc2o1 | -16.6%
76 | Cc1nn(CC(=O)NCCCN2CCC(N3CCCCC3)CC2)c(=O)c2cc(-c3ccccc3)nn12 | 8.61%
77 | COc1ccc(CNC(=O)C(=O)NCCC2CCCCN2S(=O)(=O)c2ccccc2)cc1 (centres unmarked) | 5.18%
78 | COc1ccc(NC(=O)CN2CCN(c3nc(-c4ccc(F)cc4)cs3)CC2)c(OC)c1 | 19.2%
79 | COc1cc(CCCN2CCNC[C@@H]2Cc2ccc(O)cc2)cc(OC)c1OC | 9.46%
80 | Cc1ccc(S(=O)(=O)Cc2ccc(C(=O)NCCCN3CCN(C)CC3)o2)cc1 | 16.7%
81 | CCn1ccnc1CN1CCCC(C(=O)c2cccc(C(F)(F)F)c2)C1 (centres unmarked) | 1.55%
82 | Cc1cc(=O)oc2c(CN3CCCC3)c(O)c(Cl)cc12 | 7.07%
83 | COc1ccc(OCC(=O)NCC(c2ccc(OC)cc2)N2CCCCC2)cc1 (centres unmarked) | -1.58%
84 | Cc1ccc(S(=O)(=O)NCc2ccco2)cc1C(N)=O | 8.9%
85 | Cc1cc(N2C(=O)C(=O)/C(=C(/O)c3ccc(F)cc3)C2c2cccc(Br)c2)no1 (centres unmarked) | 8.94%
86 | COc1ccc(S(=O)(=O)N2CCCCCC2)cc1C(=O)N1CCCCC1 | 3.64%
